Source: US20250270341A1 (Alector, published 2025)
Values belong to the binder of their own block, whether it stands above or below them.

Key:
Assay in all cases: FACS, 5 ug/ml
[1] = molecular target: T1, Full length human CD98hc on CHO cells (human)
T1 construct: CHO cells stably overexpressing it; also called CHO-human CD98hc; CHO-huCD98hc
T1 chain: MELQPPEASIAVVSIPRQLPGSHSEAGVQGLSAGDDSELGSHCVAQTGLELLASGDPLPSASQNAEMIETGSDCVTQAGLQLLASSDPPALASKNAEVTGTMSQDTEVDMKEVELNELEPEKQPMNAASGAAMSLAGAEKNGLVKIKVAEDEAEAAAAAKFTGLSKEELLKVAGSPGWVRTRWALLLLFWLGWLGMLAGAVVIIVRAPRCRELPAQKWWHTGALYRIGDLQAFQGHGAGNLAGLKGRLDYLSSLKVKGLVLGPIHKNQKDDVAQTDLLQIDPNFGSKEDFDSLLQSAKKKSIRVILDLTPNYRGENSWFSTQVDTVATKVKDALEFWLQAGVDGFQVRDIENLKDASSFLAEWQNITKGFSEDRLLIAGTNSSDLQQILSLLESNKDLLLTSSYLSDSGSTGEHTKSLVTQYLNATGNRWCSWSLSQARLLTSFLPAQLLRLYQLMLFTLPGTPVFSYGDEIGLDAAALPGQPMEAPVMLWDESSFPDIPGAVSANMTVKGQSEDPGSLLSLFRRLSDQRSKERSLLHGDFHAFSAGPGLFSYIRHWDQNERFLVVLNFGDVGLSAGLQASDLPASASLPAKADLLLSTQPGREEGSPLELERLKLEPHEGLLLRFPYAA

[2] = molecular target: T2, Full length mouse CD98hc on CHO cells (mouse, UniProt P10852 1-526)
T2 construct: CHO cells stably overexpressing it; also called CHO-mouse CD98hc; CHO-mCD98hc
T2 sequence: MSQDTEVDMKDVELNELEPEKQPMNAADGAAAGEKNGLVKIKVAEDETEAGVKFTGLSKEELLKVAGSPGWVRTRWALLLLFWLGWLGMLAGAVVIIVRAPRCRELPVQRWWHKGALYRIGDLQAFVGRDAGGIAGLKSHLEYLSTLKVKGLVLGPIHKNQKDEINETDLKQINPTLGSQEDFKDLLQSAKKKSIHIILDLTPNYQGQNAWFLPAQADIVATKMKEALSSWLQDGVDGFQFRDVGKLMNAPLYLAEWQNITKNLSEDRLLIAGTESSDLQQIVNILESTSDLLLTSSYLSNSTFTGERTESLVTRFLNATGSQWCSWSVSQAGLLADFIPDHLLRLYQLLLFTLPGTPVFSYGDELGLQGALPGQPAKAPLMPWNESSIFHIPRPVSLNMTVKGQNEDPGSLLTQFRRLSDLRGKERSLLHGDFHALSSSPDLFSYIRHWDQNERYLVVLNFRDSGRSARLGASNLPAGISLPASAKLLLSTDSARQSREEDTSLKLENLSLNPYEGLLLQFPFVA

[3] = molecular target: T3, human CD98hc endogenously expressed on HCMEC/D3 cells (human)
T3 construct: human brain endothelial cell line
T3 chain: T1 chain

MFI fold-change relative to isotype hIgG1 [1]: 5.6 | MFI fold-change relative to isotype hIgG1 [2]: 1.1 | MFI fold-change relative to isotype hIgG1 [3]: 17.9
B1: CD98hc.04.022 (2+1 bispecific antibody) (bispecific antibody)
heavy 1: EVRLLESGGGLVQPGGSLRLSCAASGFTFSNYAMGWVRQAPGKGLEWVSAISGSGGSTYYADSVKGRFTTSRDDSKNALYLQMNSLRAEDTAVYYCARGGPGWYAADVWGQGTTVTVSSASTKGPSVFPLAPSSKSTSGGTAALGCLVKDYFPEPVTVSWNSGALTSGVHTFPAVLQSSGLYSLSSVVTVPSSSLGTQTYICNVNHKPSNTKVDKKV[here human IgG1 Fc with changes without letters]GGGGSGGGGSGGGGSEVQLQQSGAELVKPGASVKLSCTASGFNIKDTFMHWMKQRPEQGLEWIGRIDPANANTRYDPKFQGKATITTDTSSNTAYLQLSSLTSEDTAVYYCARDVYYDVWGAGTTVTVSSGGSEGKSSGSGSESKSTGGSDILMTQSPSSMSVSLGDTVTITCHASQGISSNIGWLQQKPGRSFKGLIYHGSNLEDGVPSRFTGSGSGTDYSLTISGLESEDFADYYCVQYAQFPRTFGGGTKLEIQ
heavy 2: EVRLLESGGGLVQPGGSLRLSCAASGFTFSNYAMGWVRQAPGKGLEWVSAISGSGGSTYYADSVKGRFTTSRDDSKNALYLQMNSLRAEDTAVYYCARGGPGWYAADVWGQGTTVTVSS[here human IgG1 constant region with changes without letters]
light: DIQMTQSPSSLSASVGDRVTITCRASQSISSYLNWYQQKPGKAPKLLIYAASSLQSGVPSRFSGSGSGTDFTLTISSLQPEDFATYYCQQADLPAFAFGGGTKVEIKRTVAAPSVFIFPPSDEQLKSGTASVVCLLNNFYPREAKVQWKVDNALQSGNSQESVTEQDSKDSTYSLSSTLTLSKADYEKHKVYACEVTHQGLSSPVTKSFNRGEC

MFI fold-change relative to isotype hIgG1 [1]: 0.9 | MFI fold-change relative to isotype hIgG1 [2]: 0.4 | MFI fold-change relative to isotype hIgG1 [3]: 1.5
B2: CD98hc.04.045 (2+1 bispecific antibody) (bispecific antibody)
heavy 1: EVRLLESGGGLVQPGGSLRLSCAASGFTFSNYAMGWVRQAPGKGLEWVSAISGSGGSTYYADSVKGRFTTSRDDSKNALYLQMNSLRAEDTAVYYCARGGPGWYAADVWGQGTTVTVSSASTKGPSVFPLAPSSKSTSGGTAALGCLVKDYFPEPVTVSWNSGALTSGVHTFPAVLQSSGLYSLSSVVTVPSSSLGTQTYICNVNHKPSNTKVDKKV[here human IgG1 Fc with changes without letters]GGGGSGGGGSGGGGSQIQLVQSGPELKKPGETVKISCKASGYSITNFGMNWVKQAPGKGLKWMGWVNTYTGEPTYADDFKGRFAFSLETSASTASLQINNLKNEDTATYFCTRSVITYTMDYWGQGTSVTVSSGGSEGKSSGSGSESKSTGGSDIQLTQSPSSLSASLGERVSLTCRASQEISGYLSWLQQKPDGTIKRLIYAASTLDSGVPKRFSGSRSGSDYSLTISSLESEDFADYYCLQYASYPRTFGGGTKVEIK
heavy 2: EVRLLESGGGLVQPGGSLRLSCAASGFTFSNYAMGWVRQAPGKGLEWVSAISGSGGSTYYADSVKGRFTTSRDDSKNALYLQMNSLRAEDTAVYYCARGGPGWYAADVWGQGTTVTVSS[here human IgG1 constant region with changes without letters]
light: B1 light

MFI fold-change relative to isotype hIgG1 [1]: 3.9 | MFI fold-change relative to isotype hIgG1 [2]: 0.8 | MFI fold-change relative to isotype hIgG1 [3]: 5.6
B3: CD98hc.04.046 (2+1 bispecific antibody) (bispecific antibody)
heavy 1: EVRLLESGGGLVQPGGSLRLSCAASGFTFSNYAMGWVRQAPGKGLEWVSAISGSGGSTYYADSVKGRFTTSRDDSKNALYLQMNSLRAEDTAVYYCARGGPGWYAADVWGQGTTVTVSSASTKGPSVFPLAPSSKSTSGGTAALGCLVKDYFPEPVTVSWNSGALTSGVHTFPAVLQSSGLYSLSSVVTVPSSSLGTQTYICNVNHKPSNTKVDKKV[here human IgG1 Fc with changes without letters]GGGGSGGGGSGGGGSQIQLVQSGPVLKKPGETVKISCKASGYTFTNFGMNWVKQAPGKGLKWMGWIDTYTREPTYVDDFKGRFAFSLETSVTTAYLQINDLKNEDSATYFCARGESHWYFDVWGAGTTVTVSSGGSEGKSSGSGSESKSTGGSQIVLTQSPAIMSASLGERVTMTCIVSSSVSSSYLYWYQQKPGSSPKLWIYSTSILASGVPGRFSGSGSGTSYSLTISSMEAEDAATYYCHQYHRSPPTFGGGTKLEIK
heavy 2: EVRLLESGGGLVQPGGSLRLSCAASGFTFSNYAMGWVRQAPGKGLEWVSAISGSGGSTYYADSVKGRFTTSRDDSKNALYLQMNSLRAEDTAVYYCARGGPGWYAADVWGQGTTVTVSS[here human IgG1 constant region with changes without letters]
light: B1 light
